Source: PMC6783653
No constants are given. Whether binding was seen depends on the method and setting. Binding seen in cells or lysates may run through a third protein. Some binding calls cover weakened binding; strength is not graded here. For some of these results: Sequences can lack the tags named with a protein.

The chains behind the UniProt entries cited, without tags or fusion partners.
UniProt P62630: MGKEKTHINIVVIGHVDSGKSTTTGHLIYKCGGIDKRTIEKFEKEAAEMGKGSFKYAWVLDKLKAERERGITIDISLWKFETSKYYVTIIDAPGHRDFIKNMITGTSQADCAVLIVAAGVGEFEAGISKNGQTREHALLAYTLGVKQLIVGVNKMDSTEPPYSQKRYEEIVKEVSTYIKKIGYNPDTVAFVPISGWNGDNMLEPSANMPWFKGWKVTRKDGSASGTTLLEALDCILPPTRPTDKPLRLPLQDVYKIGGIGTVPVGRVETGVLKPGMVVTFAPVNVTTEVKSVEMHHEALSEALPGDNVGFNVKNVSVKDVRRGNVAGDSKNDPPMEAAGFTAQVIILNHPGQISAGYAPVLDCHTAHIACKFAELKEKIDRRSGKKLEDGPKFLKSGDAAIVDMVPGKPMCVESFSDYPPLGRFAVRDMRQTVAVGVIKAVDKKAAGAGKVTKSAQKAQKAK

How the values were obtained:
GST-tagged eEF1A1 (rat) = GST-tagged eEF1A1 (rat) (UniProt P62630); test: pull-down; GST or GST-eEF1A1 on glutathione agarose beads, TIP30-His full length and deletion mutants, 2 h at 4°C, Western blot
[1] = target: endogenous eEF1A1 of neonatal rat cardiomyocytes (rat (endogenous in neonatal rat cardiomyocytes)) (UniProt P62630); test: proximity ligation; Duolink in situ, NRCM transduced with Ad.Con or Ad.TIP30, stimulated with phenylephrine; anti-eEF1A1 and anti-eEF1B2
[2] = target: eEF1A1-Myc expressed by adenovirus (Ad.eEF1A1-Myc) in neonatal rat cardiomyocytes (rat) (UniProt P62630); test: co-IP; anti-Myc immunoprecipitation in PE-stimulated NRCM co-transduced with Ad.eEF1A1-Myc and Ad.con or Ad.TIP30; endogenous eEF1B2 detected
[3] = target: endogenous eEF1A1 of neonatal rat cardiomyocytes (rat (endogenous in neonatal rat cardiomyocytes)) (UniProt P62630); test: proximity ligation; Duolink in situ, unstimulated NRCM; anti-eEF1A1 and anti-eEF1B2
[4] = target: eEF1A1-Myc expressed in HEK cells (rat) (UniProt P62630); test: co-IP; HEK cells transfected with GST-TIP30 and eEF1A1-Myc; crosslinking with 0.5% PFA, lysis in 20 mM HEPES pH 7.6, 75 mM NaCl, 0.1% NP-40; Western blot
[5] = target: endogenous eEF1A1 of neonatal rat cardiomyocytes (rat (endogenous in neonatal rat cardiomyocytes)) (UniProt P62630); test: proximity ligation; Duolink in situ, neonatal rat cardiomyocytes, anti-TIP30 and anti-eEF1A1; control anti-TIP30 and anti-Myc
[6] = target: endogenous eEF1A1 of neonatal rat cardiomyocytes (rat (endogenous in neonatal rat cardiomyocytes)) (UniProt P62630); test: co-IP; endogenous proteins in NRCM after stimulation with phenylephrine for 24 h; crosslinking with 0.5% PFA, 20 mM HEPES pH 7.6, 75 mM NaCl, 0.1% NP-40

B1: TIP30-ΔN52-His (domain or fragment, UniProt B0BNF8 53-242)
chain: RKLTFEEEAYNNVNQEVVDFEKLDEYAPAFQGHDVGFCCLGTTRRKAGADGFVRVDRDYVLKSAELAKAGGCKHFNLLSSRGADKSSSFLYLQVKGEVEAKVEELKFDRLSVFRPGVLLCDRQESRPGEWLARKFFGSLPDSWASGYAVPVVTVVRAMLNNLVSPGSGQMELLENKAILHLGKDSDGPKL
GST-tagged eEF1A1 (rat)
  binding: no binding

B2: endogenous eEF1B2 of neonatal rat cardiomyocytes (protein, UniProt A6IPG1 1-225)
chain: MGFGDLKTPAGLQVLNDYLADKSYIEGYVPSQADVAVFEAISGPPPADLCHALRWYNHIKSYEKEKASLPGVKKSLGKYGPVSVADTTGSGAADAKDDDDIDLFGSDDEEESEDAKRLREERLAQYESKKAKKPAVVAKSSILLDVKPWDDETDMTKLEECVRSIQADGLVWGSSKLVPVGYGIKKLQIQCVVEDDKVGTDMLEEQITAFEDYVQSMDVAAFNKI
[1]
  binding: binds
[2]
  binding: binds
[3]
  binding: binds weakly

B3: GST-tagged TIP30 full-length protein expressed in HEK cells (protein, UniProt B0BNF8 1-242)
chain: MADKETLLKLREDFKMQNKSVFILGASGETGKVLLKEILGQNLFSKVTLIGRRKLTFEEEAYNNVNQEVVDFEKLDEYAPAFQGHDVGFCCLGTTRRKAGADGFVRVDRDYVLKSAELAKAGGCKHFNLLSSRGADKSSSFLYLQVKGEVEAKVEELKFDRLSVFRPGVLLCDRQESRPGEWLARKFFGSLPDSWASGYAVPVVTVVRAMLNNLVSPGSGQMELLENKAILHLGKDSDGPKL
[4]
  binding: binds

B4: TIP30-His full-length protein (protein, UniProt B0BNF8 1-242)
chain: B3 chain
GST-tagged eEF1A1 (rat)
  binding: binds

B5: TIP30 overexpressed by adenovirus (Ad.TIP30) in neonatal rat cardiomyocytes (protein, UniProt B0BNF8 1-242)
chain: B3 chain
[1]
  binding: binds
[2]
  binding: binds

B6: endogenous TIP30 of neonatal rat cardiomyocytes (protein, UniProt B0BNF8 1-242)
chain: B3 chain
[5]
  binding: binds
[6]
  binding: binds
